For 40 molecules, growth inhibition call results are on record in the antibiotic and cytotoxicity screens of Wong et al. (2023).

The list shows a part of the results.

The assay has as its system S. aureus RN4220. The experiment in a line: growth inhibition call (relative growth <= 0.2). To be noted: 50 µM.
As to `C[C@@H]1CN([C@@H](C)CO)C(=O)Cc2cc(NC(=O)CCN3CCOCC3)ccc2O[C@@H]1CN(C)Cc1ccc(C(=O)Nc2ccccc2N)cc1`, the growth inhibition call is “inactive”.

`C[C@@H]1CN([C@H](C)CO)S(=O)(=O)c2ccc(C#Cc3ccccc3F)cc2O[C@H]1CN(C)C(=O)Cc1cccnc1`: the growth inhibition call is “inactive”.

As to `COCC#Cc1cnc2c(c1)C(=O)N([C@@H](C)CO)C[C@H](C)[C@@H](CN(C)C(=O)Nc1ccccc1OC)O2`, the growth inhibition call is “inactive”.

On to `C[C@@H]1CN([C@@H](C)CO)C(=O)c2cc(NC(=O)NC3CCCCC3)ccc2O[C@@H]1CN(C)Cc1ccc(C(=O)Nc2ccccc2N)cc1`, for which the growth inhibition call is “inactive”.

For the molecule `COc1ccc(S(=O)(=O)Nc2cccc3c2O[C@H](CN(C)S(=O)(=O)c2cccs2)[C@H](C)CN([C@H](C)CO)C3=O)cc1`, the growth inhibition call is “inactive”.

Turning to `Cc1noc(C)c1NC(=O)Nc1ccc2c(c1)C(=O)N([C@@H](C)CO)C[C@H](C)[C@@H](CN(C)C(=O)C1CCCCC1)OCCCC[C@H](C)O2`, the growth inhibition call is “inactive”.

Regarding `Cc1ccc(S(=O)(=O)N(C)C[C@H]2OCCCC[C@@H](C)Oc3ccc(NC(=O)Nc4ccc5c(c4)OCO5)cc3C(=O)N([C@H](C)CO)C[C@@H]2C)cc1`, the growth inhibition call is “inactive”.

As to `Cc1ccc(S(=O)(=O)N[C@@H]2C=C[C@H](CC(=O)NCCN3CCCCC3)O[C@H]2CO)cc1`, the growth inhibition call was “inactive”.

In the case of `C[C@@H](O)Cn1cnc2c1c(=O)n(C)c(=O)n2C`, the growth inhibition call was “inactive”.

Turning to `Cc1nn(C)cc1NC(=O)C[C@@H]1CC[C@@H]2[C@@H](COc3ccc(NC(=O)C4CCOCC4)cc3C(=O)N2C)O1`, the growth inhibition call was “inactive”.

For `C[C@H](CO)N1C[C@H](C)[C@H](CN(C)S(=O)(=O)c2cn(C)cn2)Oc2ccc(NC(=O)CCN3CCOCC3)cc2C1=O`, the growth inhibition call is “inactive”.

As to `O=C1C[C@@H]2C(=O)NCCN2C(NC(=O)c2ccccc2)=N1`, the growth inhibition call is “inactive”.

Regarding `C[C@H](CO)N1C[C@H](C)[C@H](CN(C)C(=O)Cc2ccncc2)Oc2ncc(C#Cc3ccccc3F)cc2C1=O`, the growth inhibition call was “inactive”.

On to `C[C@H](CO)N1C[C@H](C)[C@H](CN(C)C(=O)Cc2ccccn2)Oc2ncc(-c3cccc(C(=O)N(C)C)c3)cc2C1=O`, for which the growth inhibition call is “inactive”.

For `O=C(CCCCCCC(=O)N/N=C/c1cc(I)cc(I)c1O)NO`, the growth inhibition call was “inactive”.

As to `COc1cc(/C=C/C(=O)O[C@H]2CC[C@]34C[C@]35CC[C@]3(C)[C@@H]([C@@H](C)CCC=C(C)C)CC[C@@]3(C)[C@@H]5CC[C@@H]4C2(C)C)ccc1O`, the growth inhibition call was “inactive”.

`C[C@@H]1CN([C@H](C)CO)C(=O)c2cc(NC(=O)C3CCCCC3)ccc2O[C@@H](C)CCCCO[C@@H]1CN(C)Cc1ccc(Cl)c(Cl)c1`: the growth inhibition call was “inactive”.

As to `CNC(=O)Cc1cnc(N)s1`, the growth inhibition call is “inactive”.

Turning to `C[C@@H]1CCCCO[C@H](CN(C)C(=O)Cc2ccccc2)[C@H](C)CN([C@H](C)CO)C(=O)c2cc(NC(=O)Nc3ccccc3)ccc2O1`, the growth inhibition call is “inactive”.

Turning to `C[C@@H]1CN([C@H](C)CO)C(=O)c2cc(NS(=O)(=O)c3ccc(Cl)cc3)ccc2O[C@@H](C)CCCCO[C@@H]1CN(C)S(=O)(=O)c1ccc(Cl)cc1`, the growth inhibition call was “inactive”.

Turning to `C[C@H](CO)N1C[C@H](C)[C@@H](CN(C)C(=O)c2cc(Cl)cc(Cl)c2)OCc2ccccc2-c2ccccc2C1=O`, the growth inhibition call is “inactive”.

`C[C@H]1CN([C@@H](C)CO)C(=O)c2cc(NC(=O)Nc3cccc4ccccc34)ccc2O[C@@H]1CN(C)Cc1ccccc1`: the growth inhibition call was “inactive”.

Take `COc1ccc2c3c(n(c2c1)C)[C@H](CO)N(C[C@]13CCN(CC1)S(=O)(=O)C)C(=O)CN(C)C`: the growth inhibition call was “inactive”.

On to `CO[C@H](CN(C)C(=O)C1CCOCC1)[C@@H](C)CN(C(=O)Nc1ccc(C(F)(F)F)cc1)[C@@H](C)CO`, for which the growth inhibition call is “active”.

Take `CN1CCN(C(=O)[C@H]2[C@H](CO)[C@H]3Cn4c(ccc(C5=CCCC5)c4=O)[C@@H]2N3S(C)(=O)=O)CC1`: the growth inhibition call was “inactive”.

On to `COc1ccc(NC(=O)Nc2ccc3c(c2)[C@@H]2C[C@H](CC(=O)N4CCN(C)CC4)O[C@H](CO)[C@@H]2O3)cc1`, for which the growth inhibition call was “inactive”.

As for `C[C@H]1CN([C@@H](C)CO)C(=O)CCCn2nncc2CO[C@@H]1CN(C)S(=O)(=O)c1ccc2ccccc2c1`, the growth inhibition call was “inactive”.

In the case of `O=C(/C=C/c1ccc(O)cc1)[C@H]1C(=O)[C@H]([C@@H]2O[C@H](CO)[C@@H](O)[C@H](O)[C@H]2O)C(=O)[C@@](O)([C@@H]2O[C@H](CO)[C@@H](O)[C@H](O)[C@H]2O)C1=O`, the growth inhibition call is “inactive”.

Turning to `C[C@@H]1CN([C@H](C)CO)C(=O)c2cccc(NC(=O)Nc3ccc(F)cc3)c2O[C@H]1CN(C)Cc1ccc(Oc2ccccc2)cc1`, the growth inhibition call was “inactive”.

`C[C@@H]1CN([C@@H](C)CO)C(=O)c2cc(NC(=O)C3CC3)ccc2O[C@@H]1CN(C)S(=O)(=O)c1ccc(F)cc1`: the growth inhibition call was “inactive”.

With `O=C(C[C@H]1C=C[C@@H](NS(=O)(=O)c2ccccc2)[C@@H](CO)O1)NCc1ccncn1`, the growth inhibition call is “inactive”.

For the molecule `Cc1noc(C)c1NC(=O)N(C)C[C@H]1OCCCC[C@@H](C)Oc2ccc(NC(=O)Nc3ccccc3)cc2C(=O)N([C@H](C)CO)C[C@@H]1C`, the growth inhibition call is “inactive”.

Consider `C[C@@H]1CN([C@H](C)CO)C(=O)Cc2cc(NC(=O)Cn3cnnn3)ccc2O[C@@H]1CN(C)Cc1ccc(C(F)(F)F)cc1`, for which the growth inhibition call was “inactive”.

`C[C@H](CO)N1C[C@H](C)[C@H](CN(C)S(C)(=O)=O)Oc2ccc(NC(=O)C3CCCCC3)cc2CC1=O`: the growth inhibition call is “inactive”.

For the molecule `COc1ccc(NC(=O)N(C)C[C@@H]2Oc3ccc(NS(C)(=O)=O)cc3C(=O)N([C@@H](C)CO)C[C@@H]2C)cc1`, the growth inhibition call was “inactive”.

Take `CCCNC(=O)N(C)C[C@@H]1Oc2cc(C#Cc3ccccn3)ccc2S(=O)(=O)N([C@@H](C)CO)C[C@@H]1C`: the growth inhibition call is “inactive”.

Turning to `C[C@H]1CN([C@@H](C)CO)C(=O)c2cccc(NC(=O)NC3CCCCC3)c2O[C@H]1CN(C)Cc1ccc(Oc2ccccc2)cc1`, the growth inhibition call is “inactive”.

As to `Cc1ccc(S(=O)(=O)N(C)C[C@@H]2OCCCC[C@H](C)Oc3ccc(NC(=O)c4ccccc4)cc3C(=O)N([C@@H](C)CO)C[C@H]2C)cc1`, the growth inhibition call is “inactive”.

Turning to `C[C@@H]1CN([C@H](C)CO)C(=O)c2cc(NS(=O)(=O)c3ccccc3)ccc2O[C@@H](C)CCCCO[C@H]1CN(C)C(=O)Nc1ccc(C(F)(F)F)cc1`, the growth inhibition call was “inactive”.

Turning to `CO[C@@H]1CN(C)C(=O)c2ccc(NC(=O)c3ccccc3)cc2OC[C@@H](C)N(C(=O)CN(C)C)C[C@@H]1C`, the growth inhibition call is “inactive”.
